{"source": "the supplement of paper PMC9446081", "note": "About 220 (0.56%) of roughly 39,000 compounds showed activity. This is one part of the list.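 Further: static incubation at 37 °C against the wild-type strain, values averaged over two biological replicates.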", "data": [{"tested_on": "Escherichia coli K-12 BW25113", "test": "relative growth (OD600 normalised to plate interquartile mean) (fraction); higher = less growth inhibition, active = 0.2 or less", "settings": "50 µM; LB; incubation time: overnight (16-24 h)", "values": [{"smiles": "COc1ccc(S(=O)(=O)N(C)C[C@H]2OCCCC[C@@H](C)Oc3ccc(NS(=O)(=O)c4cn(C)cn4)cc3C(=O)N([C@@H](C)CO)C[C@H]2C)cc1", "relative growth": "inactive: 0.957"}, {"smiles": "COc1ccc(S(=O)(=O)Nc2ccc3c(c2)CC(=O)N([C@@H](C)CO)C[C@H](C)[C@H](CN(C)Cc2ccc(Cl)c(Cl)c2)O3)cc1", "relative growth": "inactive: 1.01"}, {"smiles": "C[C@@H]1CN([C@@H](C)CO)C(=O)c2cc(NS(=O)(=O)c3ccc(F)cc3)ccc2O[C@@H](C)CCCCO[C@H]1CN(C)C(=O)Cc1ccccc1", "relative growth": "inactive: 0.986"}, {"smiles": "CC(C)NC(=O)Nc1ccc2c(c1)C(=O)N([C@@H](C)CO)C[C@@H](C)[C@H](CN(C)S(=O)(=O)c1cn(C)cn1)O2", "relative growth": "inactive: 0.989"}, {"smiles": "C[C@@H]1CCCCO[C@H](CN(C)S(=O)(=O)c2cccs2)[C@H](C)CN([C@H](C)CO)C(=O)c2cc(NC(=O)NC3CCCCC3)ccc2O1", "relative growth": "inactive: 1.02"}, {"smiles": "COc1ccc(S(=O)(=O)Nc2ccc3c(c2)C(=O)N([C@H](C)CO)C[C@H](C)[C@H](CN(C)C(=O)Nc2ccc(C(F)(F)F)cc2)OCCCC[C@H](C)O3)cc1", "relative growth": "inactive: 1"}, {"smiles": "CC[C@@H](N)c1ccc(C)cn1", "relative growth": "inactive: 0.992"}, {"smiles": "C[C@H]1CN([C@@H](C)CO)C(=O)c2cc(C#CCN(C)C)cnc2O[C@H]1CN(C)C(=O)CCN1CCCCC1", "relative growth": "inactive: 1.01"}, {"smiles": "CC(C)NC(=O)Nc1cccc2c1O[C@@H](CN(C)Cc1ccc(-c3ccccc3)cc1)[C@H](C)CN([C@H](C)CO)C2=O", "relative growth": "inactive: 1.01"}, {"smiles": "C[C@@H]1CN([C@H](C)CO)C(=O)c2cc(Br)cnc2O[C@H]1CN(C)S(=O)(=O)c1ccccc1", "relative growth": "inactive: 1.01"}, {"smiles": "COc1ccc(S(=O)(=O)N(C)C[C@@H]2OCc3cn(nn3)CCCC(=O)N([C@H](C)CO)C[C@@H]2C)cc1", "relative growth": "inactive: 1.04"}, {"smiles": "COCCNC(=O)C[C@@H]1C[C@@H]2c3cc(NC(=O)COC)ccc3O[C@@H]2[C@H](CO)O1", "relative growth": "inactive: 0.951"}, {"smiles": "COC1=C2C[C@H](C)C[C@H](OC)[C@@H](O)[C@H](C)/C=C(\\C)[C@H](OC(N)=O)[C@H](OC)/C=C/C=C(\\C)C(=O)NC(=CC1=O)C2=O", "relative growth": "inactive: 1.01"}, {"smiles": "C[C@H]1CN([C@@H](C)CO)C(=O)Cc2cc(NS(=O)(=O)c3ccccc3)ccc2O[C@H]1CN(C)S(=O)(=O)c1cn(C)cn1", "relative growth": "inactive: 1.01"}, {"smiles": "CC(C)C#Cc1ccc2c(c1)O[C@@H](CN(C)C(=O)c1cccc(F)c1)[C@@H](C)CN([C@@H](C)CO)S2(=O)=O", "relative growth": "inactive: 0.979"}, {"smiles": "COc1ccccc1NC(=O)N(C)C[C@@H]1Oc2cc(Br)ccc2S(=O)(=O)N([C@@H](C)CO)C[C@H]1C", "relative growth": "inactive: 1.01"}, {"smiles": "C[C@@H]1CCCCO[C@H](CN(C)C(=O)Nc2ccc3c(c2)OCO3)[C@H](C)CN([C@@H](C)CO)C(=O)c2cc(NS(=O)(=O)c3ccc(F)cc3)ccc2O1", "relative growth": "inactive: 1.01"}, {"smiles": "C[C@@H]1CN([C@@H](C)CO)S(=O)(=O)c2ccc(-c3cncnc3)cc2O[C@@H]1CN(C)C(=O)c1ccc2c(c1)OCO2", "relative growth": "inactive: 0.993"}, {"smiles": "C[C@H](CO)N1C[C@H](C)[C@H](CN(C)C(=O)Nc2ccccc2)OCCCC[C@H](C)Oc2ccc(NC(=O)NC3CCCCC3)cc2C1=O", "relative growth": "inactive: 0.993"}, {"smiles": "COc1ccc(NC(=O)N(C)C[C@H]2OCCCC[C@H](C)Oc3ccc(NC(=O)c4ccncc4)cc3C(=O)N([C@H](C)CO)C[C@@H]2C)cc1", "relative growth": "inactive: 1.01"}, {"smiles": "C[C@@H]1CN([C@H](C)CO)C(=O)c2cc(C#Cc3ccccc3)cnc2O[C@H]1CN(C)S(=O)(=O)c1ccccc1F", "relative growth": "inactive: 1.03"}, {"smiles": "COc1ccc(NC(=O)Nc2ccc3c(c2)C(=O)N([C@H](C)CO)C[C@@H](C)[C@H](CN(C)CC2CCCCC2)OCCCC[C@@H](C)O3)cc1", "relative growth": "inactive: 0.987"}, {"smiles": "C[C@@H]1CN([C@@H](C)CO)C(=O)c2cccc(NC(=O)Nc3ccc(F)cc3)c2O[C@H]1CN(C)S(=O)(=O)c1cn(C)cn1", "relative growth": "inactive: 0.984"}, {"smiles": "CCCC(=O)Nc1ccc2c(c1)C(=O)N(C)[C@H]1CC[C@@H](CC(=O)NCCN3CCCCC3)O[C@@H]1CO2", "relative growth": "inactive: 1.01"}, {"smiles": "COc1ccc(S(=O)(=O)N(C)C[C@@H]2OCCCC[C@H](C)Oc3ccc(NC(=O)Nc4ccccc4)cc3C(=O)N([C@H](C)CO)C[C@H]2C)cc1", "relative growth": "inactive: 1.02"}, {"smiles": "O=C(NCc1ccccc1)[C@@H]1c2ccccc2C(=O)N(CC23CC4CC(CC(C4)C2)C3)[C@H]1c1ccc(CO)cc1", "relative growth": "inactive: 1.03"}, {"smiles": "C[C@@H]1CN([C@@H](C)CO)S(=O)(=O)c2ccc(C#Cc3ccc(F)cc3)cc2O[C@@H]1CN(C)S(C)(=O)=O", "relative growth": "inactive: 1.02"}, {"smiles": "C[C@@H]1CCCCO[C@@H](CN(C)Cc2ccc3c(c2)OCO3)[C@@H](C)CN([C@@H](C)CO)C(=O)c2cc(NC(=O)C3CCCCC3)ccc2O1", "relative growth": "inactive: 1.03"}, {"smiles": "COCC#Cc1ccc2c(c1)O[C@@H](CN(C)Cc1ccc3c(c1)OCO3)[C@H](C)CN([C@@H](C)CO)S2(=O)=O", "relative growth": "inactive: 1.03"}, {"smiles": "COc1ccc([Si](C)(C)[C@H]2[C@H](CCn3cc([C@H](O)c4ccccc4)nn3)O[C@@]3(C(=O)N(Cc4ccc(N5C(=O)c6cccc7cccc5c67)cc4)c4ccccc43)[C@@H]2C)cc1", "relative growth": "inactive: 1.02"}, {"smiles": "O=C1NC(=O)C(c2cnc3ccccn23)=C1c1cn2c3c(cc(F)cc13)CN(C(=O)N1CCCCC1)CC2", "relative growth": "inactive: 1.01"}, {"smiles": "O=C(C[C@@H]1C[C@H]2c3cc(NC(=O)Cc4ccncc4)ccc3O[C@H]2[C@H](CO)O1)NCc1cc(F)ccc1F", "relative growth": "inactive: 1"}, {"smiles": "C[C@H](CO)N1C[C@H](C)[C@@H](CN(C)C(=O)Cc2cccnc2)Oc2cc(-c3cncnc3)ccc2S1(=O)=O", "relative growth": "inactive: 0.995"}, {"smiles": "C[C@H]1CN([C@@H](C)CO)C(=O)c2ccccc2-c2ccccc2CO[C@H]1CN(C)C(=O)c1cc(Cl)cc(Cl)c1", "relative growth": "inactive: 0.989"}, {"smiles": "C[C@H](CO)N1C[C@H](C)[C@H](CN(C)C(=O)c2ccccc2)OCCCC[C@H](C)Oc2ccc(NC(=O)NC3CCCCC3)cc2C1=O", "relative growth": "inactive: 0.978"}, {"smiles": "C[n+]1ccc(/C2=C3\\C=CC(=N3)/C(c3cc[n+](C)cc3)=c3/cc/c4[n]3[Fe][n]3c2ccc3/C(c2cc[n+](C)cc2)=C2/C=CC(=N2)\\C=4c2cc[n+](C)cc2)cc1", "relative growth": "inactive: 0.703"}, {"smiles": "Cc1noc(C)c1S(=O)(=O)Nc1cccc2c1O[C@@H](CN(C)Cc1ccccc1)[C@@H](C)CN([C@H](C)CO)C2=O", "relative growth": "inactive: 0.865"}, {"smiles": "CO[C@H]1CN(C)C(=O)c2cc(NC(=O)Nc3ccccc3F)ccc2OC[C@@H](C)N(Cc2ccccc2C(=O)O)C[C@@H]1C", "relative growth": "inactive: 0.972"}, {"smiles": "CO[C@H]1CN(C)C(=O)c2ccc(NS(C)(=O)=O)cc2OC[C@@H](C)N(C(=O)C2CCCCC2)C[C@@H]1C", "relative growth": "inactive: 0.901"}, {"smiles": "COc1ccc(S(=O)(=O)N(C)C[C@@H]2Oc3c(NC(=O)c4cc(C)nn4C)cccc3C(=O)N([C@@H](C)CO)C[C@@H]2C)cc1", "relative growth": "inactive: 0.975"}, {"smiles": "COc1ccc(NC(=O)N(C)C[C@H]2Oc3ncc(C#C[C@H](C)O)cc3C(=O)N([C@@H](C)CO)C[C@@H]2C)cc1", "relative growth": "inactive: 0.981"}, {"smiles": "C[C@@H]1CCCCO[C@H](CN(C)C(=O)Nc2cccc3ccccc23)[C@H](C)CN([C@H](C)CO)C(=O)c2cc(NS(C)(=O)=O)ccc2O1", "relative growth": "inactive: 0.916"}, {"smiles": "Cc1noc(C)c1NC(=O)Nc1ccc2c(c1)C(=O)N([C@@H](C)CO)C[C@@H](C)[C@H](CN(C)C(=O)Nc1cccc3ccccc13)O2", "relative growth": "inactive: 1"}, {"smiles": "C[C@H](CO)N1C[C@H](C)[C@@H](CN(C)Cc2ccncc2)Oc2ccc(NC(=O)c3ccncc3)cc2CC1=O", "relative growth": "inactive: 0.986"}, {"smiles": "COc1ccc(NC(=O)Nc2ccc3c(c2)CC(=O)N([C@@H](C)CO)C[C@H](C)[C@@H](CN(C)Cc2ccc(C(=O)Nc4ccccc4N)cc2)O3)cc1", "relative growth": "inactive: 0.992"}, {"smiles": "COc1ccc(NC(=O)N(C)C[C@H]2Oc3c(NC(=O)C4CC4)cccc3C(=O)N([C@@H](C)CO)C[C@H]2C)cc1", "relative growth": "inactive: 0.999"}, {"smiles": "Cc1ccc(-c2ccc3c(c2)O[C@H](CN(C)Cc2cncnc2)[C@@H](C)CN([C@H](C)CO)S3(=O)=O)cc1", "relative growth": "inactive: 1.02"}, {"smiles": "C[C@@H]1CN([C@H](C)CO)C(=O)CCCn2cc(nn2)CO[C@@H]1CN(C)S(=O)(=O)c1cn(C)cn1", "relative growth": "inactive: 0.977"}, {"smiles": "C[C@@H]1[C@@H]([Si](C)(C)F)[C@H](CCn2cc([C@H](O)c3ccccc3)nn2)O[C@@]12C(=O)N(c1ccccc1)c1ccccc12", "relative growth": "inactive: 1"}, {"smiles": "CO[C@@H]1CN(C)C(=O)c2ccc(NC(=O)c3ccccc3)cc2OC[C@H](C)N(C(=O)CN(C)C)C[C@@H]1C", "relative growth": "inactive: 1.01"}, {"smiles": "C[C@@H]1CCCCO[C@@H](CN(C)C)[C@@H](C)CN([C@@H](C)CO)C(=O)c2cc(NS(=O)(=O)c3cn(C)cn3)ccc2O1", "relative growth": "inactive: 0.916"}, {"smiles": "C[C@H](CO)N1C[C@H](C)[C@H](CN(C)Cc2cccc(C(F)(F)F)c2)Oc2ncc(-c3cccc(C(F)(F)F)c3)cc2C1=O", "relative growth": "inactive: 1.02"}, {"smiles": "C[C@@H]1CN([C@@H](C)CO)C(=O)c2cccc(NC(=O)CCCCCC(=O)Nc3ccccc3N)c2O[C@@H]1CN(C)C(=O)Nc1ccc(F)cc1", "relative growth": "inactive: 0.993"}, {"smiles": "C[C@H]1CN([C@@H](C)CO)C(=O)c2cc(NC(=O)Nc3ccc(C(F)(F)F)cc3)ccc2O[C@@H]1CN(C)Cc1ccc(C(F)(F)F)cc1", "relative growth": "inactive: 1.01"}, {"smiles": "C[C@H](CO)N1C[C@H](C)[C@@H](CN(C)Cc2cccc3c2OCCCO3)OCc2cn(nn2)CCCC1=O", "relative growth": "inactive: 1"}]}]}
